Whole data set: some 33,000 sequences, median “E-score (-0.5 to 0.5)” near -0.035, cut for the highest 2% near 0.34. The list shows a part of the results.

Experimental findings from the supplement of paper PMC3334620 are described below.

In this experiment the target is T1, Mot3 (UniProt P54785).
T1 sequence: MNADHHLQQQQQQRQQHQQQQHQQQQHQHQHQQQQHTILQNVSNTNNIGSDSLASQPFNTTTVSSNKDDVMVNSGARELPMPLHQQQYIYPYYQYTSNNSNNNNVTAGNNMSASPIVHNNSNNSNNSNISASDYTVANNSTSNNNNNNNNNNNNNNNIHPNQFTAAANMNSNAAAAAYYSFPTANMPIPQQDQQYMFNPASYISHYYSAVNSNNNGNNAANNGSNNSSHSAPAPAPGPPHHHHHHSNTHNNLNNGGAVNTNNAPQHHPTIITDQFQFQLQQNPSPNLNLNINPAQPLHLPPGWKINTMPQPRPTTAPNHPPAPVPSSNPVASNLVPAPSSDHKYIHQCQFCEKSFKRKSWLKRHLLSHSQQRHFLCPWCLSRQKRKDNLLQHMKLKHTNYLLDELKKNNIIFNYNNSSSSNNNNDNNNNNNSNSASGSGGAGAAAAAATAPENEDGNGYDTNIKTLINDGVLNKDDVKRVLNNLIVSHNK
Nature of the experiment: PBM E-score (8-mer binding enrichment) (E-score (-0.5 to 0.5)); higher = stronger / more preferred TF binding; most listed sequences are background and not binding sites. Conditions: protein concentration: 200 nM; construct: GST-full length. The method in brief: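 PURExpress in vitro transcription/translation supplied GST-tagged yeast transcription factors, either full-length or DNA-binding domain. Applied at about 100-200 nM to universal all-10-mer Agilent arrays double-stranded by primer extension, the bound protein was detected with fluorescent anti-GST. E-scores, modified Wilcoxon-Mann-Whitney statistics, were given by the Universal PBM Analysis Suite to ungapped eight-base words pooled with their reverse complements after masliner normalisation.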
As for ACAATCTC, the “PBM E-score” value was -0.0856.
To AACTCACC belongs -0.168; to CGTAGAAC, 0.122.
ATAGAAGC: the “PBM E-score” value came out at 0.0532.
To AGTCTAGG belongs -0.0777; to ATCCATTC, -0.106; to AAAGCGAA, -0.0621.
Consider CATTGGGG, for which the “PBM E-score” value was -0.157.
In the case of CAGGGTTC it was -0.184.
For AAGTGATG, the “PBM E-score” value was 0.108.
To AGTGTTGA belongs 0.073; to AGGGGCAA, 0.0199; to AGTTCCAA, 0.0451.
In the case of AATTGCAC, the “PBM E-score” value is 0.116.
To GTAAGACA belongs 0.161.
As to TATTTAAA, the “PBM E-score” value stood at 0.231.
In the case of AAACAAGG it was 0.247.
In the case of AATACCCA it was -0.083; in that of CGTACTGC, -0.139; in that of GGGACCGA, -0.185.
To GGTATTAC belongs 0.138; to AAGACTGT, -0.133; to GGATTCGA, -0.033.
For the sequence AAGTTGAG, the “PBM E-score” value was -0.0243.
Regarding AACTCGTC, the “PBM E-score” value was 0.106.
Take ACTTCTCG: the “PBM E-score” value is -0.0532.
CAGGTCGA: the “PBM E-score” value is 0.148.
With ACGAAACC, the “PBM E-score” value turned out to be 0.097.
To AATTCGAG belongs 0.0353; to GCACCGAA, 0.0213.
Consider CACTCAGC, for which the “PBM E-score” value is -0.249.
Regarding ATCCTTGG, the “PBM E-score” value was -0.0679.
AGAAAAAA: the “PBM E-score” value was 0.129.
In the case of CCATTTAA it was 0.0671.
To CCCGGGAG belongs -0.304.
To CCCCAACC belongs -0.0749; to GGACGTCC, -0.327.
For the sequence AATAGTGC, the “PBM E-score” value turned out to be 0.143.
As for CATAAGTC, the “PBM E-score” value came to 0.0958.
As for CTACATCC, the “PBM E-score” value is 0.0648.
As to CAGTACAC, the “PBM E-score” value turned out to be 0.218.
On to ATTAACGG, for which the “PBM E-score” value is -0.101.
Take GTTGAGAA: the “PBM E-score” value was -0.0381.
As for AGGGGGTC, the “PBM E-score” value was -0.218.
To ATGGCCTA belongs -0.1; to GACGTGCC, 0.173.
For the sequence TCCCTGCA, the “PBM E-score” value was -0.0548.
Regarding GACCAATC, the “PBM E-score” value was -0.039.
Turning to GTACTGCA, the “PBM E-score” value came to 0.0111.
Turning to ACTGCTCT, the “PBM E-score” value is -0.195.
In the case of GTGTCAGA it was 0.0761.
With ACTAAGAG, the “PBM E-score” value was -0.101.
As for AGTAATAA, the “PBM E-score” value came out at 0.17.
In the case of AGCGGTGA it was -0.265.
For the sequence CGCATGCA, the “PBM E-score” value is -0.0205.
To AGGCCGTA belongs -0.106.
As to GAAATGCC, the “PBM E-score” value came out at 0.0717.
To AGAAAGAC belongs -0.33; to CAGAACAG, 0.116.
To GATTTCGA belongs -0.163.
On to ACGCGGCC, for which the “PBM E-score” value was -0.0222.
Turning to CGGAAGGC, the “PBM E-score” value was 0.162.
To ATAAGAGC belongs -0.0184; to GAAGACCA, -0.209; to GAGTAGAA, 0.102.
In the case of ACAGCCAG it was -0.0488; in that of ATTCATCA, 0.00565.
Consider ACTCTTCC, for which the “PBM E-score” value was -0.185.
In the case of AACACTGG it was 0.00047; in that of CGATGGAA, -0.0568.
In the case of ACGCAGCG it was 0.0958.
With CAGCCCGA, the “PBM E-score” value is -0.166.
In the case of AGGTAGTA, the “PBM E-score” value is 0.0515.
To GAGCAGCC belongs -0.047; to GTATGTCA, 0.275.
For TCTAAACA, the “PBM E-score” value is 0.209.
In the case of AGCCGTAA it was -0.127; in that of CCTGCTAA, -0.0653; in that of GCGCACCA, -0.00988.
To ACAAGATC belongs 0.186; to AAGAGGAT, -0.115; to AAAATTGT, 0.181.
On to CTATGCAG, for which the “PBM E-score” value was -0.061.
In the case of CTTACGAA, the “PBM E-score” value was found to be 0.183.
In the case of ATGCGACG it was -0.123.
To AGTCATTC belongs -0.143.
